About 120 (0.25%) of roughly 48,000 compounds were called active. Another 4% or so got no clear call; they are omitted. Calls follow the shape of the dose curve; as a rule, active = well fitted activation curve with a large enough effect; inconclusive = small, poorly fitted or top-dose-only effect, or another doubt; inactive = no such curve, though single readings can be large or run the other way. The list shows a part of the results.
Test: Primary qHTS for Identification of Small Molecule Activators of Huntingtin-Antisense Promoter Activity; also: nearly all actives have a fitted effect of over 55% in size
Conditions: HEK293 HTT-AS promoter firefly luciferase reporter, 24 h; series mostly up to 57.5 µM; activity change, positive = activation: at the top concentration
Method in brief: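 Luminescence was read after Dual-Glo reagent and a 10 min room-temperature incubation. Values were normalized to vehicle (0% activity) and zero RLU (-100% activity). Reporter HEK293 cells had been exposed to compounds (up to 57.5 uM final) for 24 h.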

Activity change, positive = activation, inactive:
Cc1cc(C)cc(NC(=O)CSc2nc(=O)[nH]c3c2CCC3)c1 -26%
Cc1cc(C)cc(NC(=O)CSc2nc3ncccc3[nH]2)c1 -10.4%
Cc1ccc(NC(=O)C(=O)NCC(c2ccc3c(c2)OCO3)N2CCN(C)CC2)c(C)c1 (stereo not given) -15.1%
Cc1ccc(NC(=O)C(Cc2ccccc2)NS(=O)(=O)c2ccc3c(c2)CCC(=O)N3)cc1 (stereo not given) -18.6%
CS(=O)(=O)c1cccc(-c2nnc(NC(=O)c3ccc4c(c3)OCCO4)o2)c1 0.212%
CCc1ccc(NC(=O)[C@H](CSCc2ccccc2)N2Cc3ccccc3C2=O)cc1 -16.6%
COc1ccc(-c2cc3c(=O)n(CC(=O)Nc4cc(F)ccc4F)ccn3n2)cc1OC -26.7%
Cc1nn(-c2ccccc2)c2sc(C(=O)Nc3ccc(Br)cc3)cc12 6.04% [at 11.5 µM, percent change from vehicle, -100% = no light]
O=C1COc2ccc(-c3cc(-c4ccccc4)c4c(n3)-c3ccccc3OC4)cc2N1 0.309%
O=C(NCCc1ccc(Cl)cc1)c1ccc2c(c1)N(Cc1ccc(F)cc1)C(=O)CS2 -57.2%
CN(C)c1ccc(-c2nc(-c3cccs3)c(-c3cccs3)[nH]2)cc1 -43.1%
CN1CCN(CCCN2c3ccccc3Sc3ccc(S(=O)(=O)N(C)C)cc32)CC1 -8.61%
CCCn1c(SCC(O)c2ccccc2)nc2ccccc21 (stereo not given) -13.8%
COc1cccc(CNC(=O)CCCn2ncn3c(cc4occc43)c2=O)c1 -9.48%
CN[C@@H](C)[C@H]1[C@H](O)C[C@@]2(C)[C@@H]3CC[C@H]4C(C)(C)[C@@H](NC)CC[C@@]45C[C@@]35CC[C@]12C -2.75%
Cc1ccc(-c2noc(-c3ccccc3NC(=O)C3CC(=O)N(c4ccc(C)cc4)C3)n2)cc1 (stereo not given) 20.4%
COc1cc2nc(Nc3cccc(C)c3)nc(N)c2cc1OC -3.8%
Cc1ccc(C(=O)NCC(c2ccco2)S(=O)(=O)c2cccs2)cc1C (stereo not given) 14.2%
COC(=O)c1sc(-c2ccccc2)cc1NC(=O)Nc1ccc(Cl)cc1 -13%
CC1=C(C(=O)NCc2ccccc2C)C2(CCCCCC2)OC1=O -11%
CCCCN(Cc1cc2ccccc2[nH]c1=O)C(=O)c1cccc(Cl)c1 -13.2%
O=C(Oc1ccc(F)cc1)c1nc(SCc2ccc(F)cc2)ncc1Cl -1.21%
COc1ccc(NC(=O)CCS(=O)(=O)c2ccc3c(c2)oc(=O)n3C)cc1OC -17.8%
O=c1[nH]c(=O)n([C@H]2CCCO2)cc1F -10.1%
COc1ccccc1C(=O)OCc1cc(=O)n2nc(-c3cccs3)sc2n1 21.1%
CCOc1ccc(-c2cc(NC(=O)Nc3ccc(Cl)cc3)c(C(=O)OC)s2)cc1 22.3%
CCCSc1ncc(Cl)c(C(=O)N(Cc2cccc(Cl)c2)C2CCS(=O)(=O)C2)n1 (stereo not given) -35.4%
CCOC(=O)c1c(NC(=O)CCCOc2ccc(C(C)(C)C)cc2)sc2c1CCCC2 -13.3%
COc1ccc(OC)c(NC(=O)c2cnc(N3CCCCC3)c3ccccc23)c1 -26.7%
Cc1cccc(C(c2sc3nc(-c4ccco4)nn3c2O)N2CCN(c3ccccc3F)CC2)c1 (stereo not given) -1.61%
CCOC(=O)C1CCCN(S(=O)(=O)c2cc(Br)cc3c2N(C(C)=O)CC3)C1 (stereo not given) -9.2%
CCC(=O)N1CCc2cc(S(=O)(=O)NCCC(=O)NCc3ccc(C)cc3)ccc21 -0.436%
CN(C)CCCNC(=O)c1ccc(-c2cc(O)c3ncccc3c2)cc1 -13.5%
COc1cccc(-n2c(-c3ccccc3F)nc3c(cnn3-c3ccc(C)cc3)c2=O)c1 -47.1%
COc1ccc(NC(=O)c2sc3nc4c(cc3c2N)CCCCCC4)cc1 -35.9%
CCOC(=O)C(Cc1ccccc1)NC(=O)CCc1c(C)nc2nc(C)nn2c1C (stereo not given) -9.29%
Cc1ccccc1NC(=O)CSc1nc(-c2ccccc2)cn1-c1ccccc1F -12.1%
O=C(NC1CCCC1)c1ccc2c(=O)n(Cc3ccccc3)c(SCc3cccc([N+](=O)[O-])c3)nc2c1 -9.73%
COCCNC(=O)CSc1nc2cc3c(cc2c(=O)n1CCCC(=O)NCc1ccc2c(c1)OCO2)OCO3 -12.6%
COc1ccc(CNC(=O)CSc2ncc3c(n2)-c2cc(Cl)ccc2N(Cc2ccccc2)S3(=O)=O)cc1 -6.47%
Cc1ccc(Cl)cc1N1CCN(C(=O)Cn2c(-c3cccs3)cc3cc(F)ccc32)CC1 -14.6%
CCOC(=O)Cn1c(=O)cc(C(F)(F)C(F)(F)F)c2c(C)nn(CC)c21 -3.06%
Cc1cc(OCCn2c(CCNC(=O)C3CCCCC3)nc3ccccc32)ccc1Cl -46.8%
Cc1ccc(-c2nc(SCC(=O)NCC3CCCO3)c3c(=O)n(C)c(=O)n(C)c3n2)cc1 (stereo not given) 1.17%
CCOC(=O)CSC1=Nc2ccccc2C2=NC(CCC(=O)NCc3ccc(OC)cc3)C(=O)N12 (stereo not given) 10.7%
Cc1ccccc1N1CCN(S(=O)(=O)c2ccccc2)CC1 -10.7%
Oc1c(C(c2ccccc2F)N2CCN(c3ccccc3F)CC2)sc2nc(-c3ccco3)nn12 (stereo not given) -16.2%
COc1ccc(C)cc1NS(=O)(=O)c1ccc2c3c(cccc13)C(=O)N2 -41.3%
COc1ccccc1Cn1ccn(Cc2ccc(C)cc2)c(=O)c1=O -5.89%
CN(C)CC[C@H](c1ccc(Cl)cc1)c1ccccn1 -30.5%
CCCc1cc(N2CCN(c3cccc(C)c3C)CC2)n2cnnc2n1 -22%
Cc1cc(C)c(NC(=O)CSc2nccn2-c2cccc(Cl)c2)c(C)c1 -29.8%
COc1ccc(CNC(=O)CCC2N=C3c4ccccc4N=C(SCc4ccccc4F)N3C2=O)cc1 (stereo not given) -0.709%
COC(=O)c1ccc(NC(=O)CN2CCN(S(=O)(=O)c3ccc(Br)cc3)CC2)cc1 -15.5%
COc1ccc(S(=O)(=O)N(CC(=O)Nc2cc(C)ccc2OC)Cc2ccccc2)cc1 -5.07%
CCOc1ccccc1NS(=O)(=O)c1ccc2[nH]c3c(c2c1)CCCCC3 -45.6%
Cc1ccc(Cn2c(=O)n(-c3ccc(C)cc3)c(=O)c3c2c2cc(C)ccc2n3C)cc1 -12%
CCOc1ccc(CCNC(=O)c2cc3c(=O)n(C)c4ccccc4c3n2C)cc1OCC -19.8%
Cc1c(-c2ccc(Cl)cc2)c(=O)oc2c(CN3CCN(CCO)CC3)c(O)ccc12 -23.3%
O=C(CSc1cn(CC(=O)N2CCCCC2)c2ccccc12)NCc1ccc(F)cc1 -19.2%
C[C@@H]1CC(=O)NN=C1c1ccc(NN=C(C#N)C#N)cc1
N#C/C(=C\c1cccc(F)c1)c1nc(-c2cc3c(ccc4ccccc43)oc2=O)cs1 -2.86%
CCOc1cc(C2c3c(oc4cc(C)cc(C)c4c3=O)C(=O)N2CCO)ccc1O (stereo not given) -1.32%
CSc1cccc(NC(=O)C2CCCN(C(=O)c3cnn(-c4ccc(F)cc4)c3-n3cccc3)C2)c1 (stereo not given) -34.3%
CCOc1ccc(CNC(=O)C2CCN(C(=O)N3CC(CC)Oc4ccccc43)CC2)cc1 (stereo not given) -37%
Cc1c(Cl)cccc1NC(=O)N1CCOc2ccccc21 3.05%
COC(=O)c1sccc1S(=O)(=O)N1CCN(c2ccc(C)cc2C)CC1 -16.4%
Cc1ccc(OCC(=O)Nc2ccc3nc(SCC(=O)Nc4ccc(C)cc4C)sc3c2)cc1 -5.27%
CCCNC(=O)c1ccccc1NC(=O)c1nsc2ccccc12 17.2%
COc1cccc(NC(=O)CSc2ncc3c(n2)-c2ccc(Cl)cc2N(C)S3(=O)=O)c1 -13.4%
CC(C)(C)c1ccc(C(=O)NC2(C(F)(F)F)NC(=O)N(CCc3ccccc3)C2=O)cc1 (stereo not given) -22.5%
CCOc1ccccc1NC(=O)C(=O)NCCc1sc2nc(-c3ccc(OC)cc3)nn2c1C -2.18%
Cc1ccc(NC(=O)NCCOCCn2c(=O)oc3ccccc32)cc1C -10.2%
CCOc1ccc(CNC(=O)c2ccccc2NC(=O)c2nsc3ccccc23)cc1 9.54%
CCc1cccc(NC(=O)c2cc3c(s2)-c2ccccc2OC3)c1 2.85%
Cc1cc(C)c(NC(=O)C(=O)NCC(c2cccnc2)N2CCN(c3ccccc3F)CC2)c(C)c1 (stereo not given) -24.4%
O=C(CN1C(=O)c2cccc3cccc1c23)Nc1cccc(F)c1 -21.1%
CC(=O)Nc1cccc(NC(=O)CSc2nccn2C2CCCC2)c1 -1.37%
CN(Cc1ccccc1)c1ccc(-c2nc(-c3ccccc3)no2)cc1[N+](=O)[O-] 4.57%
C=Cc1ccc(Cn2c(C)c(CNCc3ccc(SC)cc3)c(C(=O)O)c2C)cc1 -20%
COC(=O)c1ccc2c(=O)n3nc(Nc4cc(OC)ccc4OC)sc3nc2c1 2.01%
Cc1ccccc1NC(=O)CSC1=Nc2ccccc2C2=NC(Cc3ccccc3)C(=O)N12 (stereo not given) 7.27%
Cc1ccc(OCc2nc(C#N)c(NCCc3ccccc3)o2)cc1 -16.6%
CCC(Sc1ncc(S(=O)(=O)c2ccc(Cl)cc2)c(=O)[nH]1)C(=O)Nc1ccc(OC)cc1 (stereo not given) -8.57%
Cc1ccc2[nH]c(=O)c3cc(C(=O)N(CCCOC(C)C)Cc4ccco4)sc3c2c1 -48.9%
COc1ccc(Cl)cc1NC(=O)CSc1nnc2[nH]c(=O)cc(-c3ccccc3)n12 14.6%
COc1ccc(NC(=O)C2CCN(C(=O)c3sc4nc[nH]c(=O)c4c3C)CC2)cc1Cl -0.244%
CN(CC(=O)Nc1ccc(Br)cc1)S(=O)(=O)c1cccc2nsnc12 -7.7%
COc1ccccc1NC(=O)CSc1nc2c(oc3ccccc32)c(=O)n1-c1ccccc1F -10.7%
O=C(O)c1ccc(OCCN2CCCCC2)cc1 0.998%
CN1C(=O)Cc2cc(S(=O)(=O)CCC(=O)N3CCN(c4ccc(Cl)cc4)CC3)ccc21 -23.5%
Cc1cc2oc(C(=O)N(Cc3ccc(N(C)C)cc3)CC3CCCO3)c(C)c2cc1Cl (stereo not given) -2.25%
COc1ccc(NC(=O)c2oc3ccccc3c2NC(=O)c2cc(C)cc(C)c2)c(OC)c1 -1.27%
CCOC(=O)C1CCN(c2nc3ccccc3nc2Cl)CC1 -5.18%
CCN(C(=O)CSc1nc2ccccc2n1Cc1ccccc1C#N)c1ccccc1 -28.4%

Reference: PubChem BioAssay AID1508624 (National Center for Advancing Translational Sciences (NCATS), 2021)
